Where a name gives a salt, the structure may show the parent alone. This is one part of the list. Repeats are few or missing, and single values can be far off.
Test system: Beas-2B AQP5-HiBiT reporter cells
Experiment: AQP5-HiBiT luminescence relative to vehicle (ratio to vehicle); higher = higher AQP5-HiBiT protein abundance
Conditions: 10 µM; 18 h
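Also: monoclonal Beas-2B line stably carrying CMV promoter-driven AQP5-HiBiT, 5,000 cells per well in 384-well plates, lytic HiBiT plus LgBiT NanoLuc luminescence, FDA-approved drug library screen.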

**Q.** Which AQP5-HiBiT luminescence does the source give for CS(=O)(=O)CCNCc1ccc(-c2ccc3ncnc(Nc4ccc(OCc5cccc(F)c5)c(Cl)c4)c3c2)o1 [Lapatinib] here?
**A.** 0.895

**Q.** For NS(=O)(=O)Cc1noc2ccccc12 [Zonisamide], which AQP5-HiBiT luminescence is on record?
**A.** 0.986

**Q.** With CC(C)(Oc1ccc(C(=O)c2ccc(Cl)cc2)cc1)C(=O)O [Fenofibric acid] as the compound, how does the AQP5-HiBiT luminescence read?
**A.** 0.922

**Q.** With CCC[C@@H]1C[C@@H](C(=O)N[C@@H]([C@H]2O[C@H](SC)[C@H](O)[C@@H](O)[C@H]2O)[C@@H](C)O)N(C)C1 [Lincomycin hydrochloride] as the compound, how does the AQP5-HiBiT luminescence read?
**A.** 0.98

**Q.** For CCCCC(=O)O[C@]1(C(=O)CO)CC[C@H]2[C@@H]3CCC4=CC(=O)CC[C@]4(C)[C@H]3[C@@H](O)C[C@@]21C [Hydrocortisone Valerate], which AQP5-HiBiT luminescence is on record?
**A.** 0.653

**Q.** How did the AQP5-HiBiT luminescence turn out when Oc1c(I)cc(Cl)c2cccnc12 [Clioquinol] was run?
**A.** 0.728

**Q.** Which AQP5-HiBiT luminescence does the source give for CCN(CC)CCNC(=O)c1c(C)[nH]c(/C=C2\C(=O)Nc3ccc(F)cc32)c1C [Sunitinib] here?
**A.** 0.934

**Q.** NCCCC[C@H](N[C@@H](CCc1ccccc1)C(=O)O)C(=O)N1CCC[C@H]1C(=O)O [Lisinopril dihydrate] was tested. Which AQP5-HiBiT luminescence did it give?
**A.** 0.697

**Q.** With Cc1ccc(Sc2ccccc2N2CCNCC2)c(C)c1 as the compound, how does the AQP5-HiBiT luminescence read?
**A.** 1.17

**Q.** NC[C@H]1O[C@H](O[C@H]2[C@H](O)[C@@H](O[C@H]3O[C@H](CO)[C@@H](O)[C@H](N)[C@H]3O)[C@H](N)C[C@@H]2N)[C@H](O)[C@@H](O)[C@@H]1O [Kanamycin sulfate] was tested. Which AQP5-HiBiT luminescence did it give?
**A.** 1.59

**Q.** OCCN1CCN(CCCN2c3ccccc3Sc3ccc(C(F)(F)F)cc32)CC1 [Fluphenazine hydrochloride] was tested. Which AQP5-HiBiT luminescence did it give?
**A.** 1.32

**Q.** For O=C(NC[C@H]1CN(c2ccc(N3CCOCC3=O)cc2)C(=O)O1)c1ccc(Cl)s1 [Rivaroxaban], which AQP5-HiBiT luminescence is on record?
**A.** 0.73

**Q.** How did the AQP5-HiBiT luminescence turn out when CN(C)c1ccc(C(=C2C=CC(=[N+](C)C)C=C2)c2ccc(N(C)C)cc2)cc1 [Crystal Violet] was run?
**A.** 5.21

**Q.** How did the AQP5-HiBiT luminescence turn out when CN(Cc1ccc(C(C)(C)C)cc1)Cc1cccc2ccccc12 [Butenafine hydrochloride] was run?
**A.** 1.04

**Q.** For CC[C@@]1(O)C(=O)OCc2c1cc1n(c2=O)Cc2cc3c(CN(C)C)c(O)ccc3nc2-1 [Topotecan hydrochloride], which AQP5-HiBiT luminescence is on record?
**A.** 0.723

**Q.** With Nc1c(CC(=O)O)cccc1C(=O)c1ccc(Br)cc1 [Bromfenac sodium] as the compound, how does the AQP5-HiBiT luminescence read?
**A.** 0.743

**Q.** Cn1ccnc1S [Methimazole] was tested. Which AQP5-HiBiT luminescence did it give?
**A.** 1.04

**Q.** Nc1ccn([C@@H]2O[C@H](CO)[C@@H](O)[C@@H]2O)c(=O)n1 [Cytarabine] was tested. Which AQP5-HiBiT luminescence did it give?
**A.** 0.854

**Q.** For CCOC(=O)c1ncn2c1CN(C)C(=O)c1cc(F)ccc1-2 [Flumazenil], which AQP5-HiBiT luminescence is on record?
**A.** 1.08

**Q.** Which AQP5-HiBiT luminescence does the source give for CCOc1nc2cccc(C(=O)O)c2n1Cc1ccc(-c2ccccc2-c2noc(=O)[nH]2)cc1 [Azilsartan] here?
**A.** 0.911

**Q.** With Cn1nnc2c(C(N)=O)ncn2c1=O [Temozolomide] as the compound, how does the AQP5-HiBiT luminescence read?
**A.** 1.35

**Q.** Which AQP5-HiBiT luminescence does the source give for C#C[C@]1(O)CC[C@H]2[C@@H]3CCC4=CC(=O)CC[C@@H]4[C@H]3CC[C@@]21C [Norethindrone] here?
**A.** 1.07

**Q.** For OC(Cn1cncn1)(Cn1cncn1)c1ccc(F)cc1F [Fluconazole], which AQP5-HiBiT luminescence is on record?
**A.** 0.985

**Q.** For CC(=O)OCC1=C(C(=O)O)N2C(=O)[C@@H](NC(=O)Cc3cccs3)[C@H]2SC1 [Cephalothin sodium], which AQP5-HiBiT luminescence is on record?
**A.** 2.05

**Q.** For CCCN1CCCC[C@H]1C(=O)Nc1c(C)cccc1C [Ropivacaine hydrochloride], which AQP5-HiBiT luminescence is on record?
**A.** 0.959

**Q.** How did the AQP5-HiBiT luminescence turn out when CC(C)(C#N)c1cc(Cn2cncn2)cc(C(C)(C)C#N)c1 [Anastrozole] was run?
**A.** 0.622

**Q.** Which AQP5-HiBiT luminescence does the source give for CC(C)CN(C[C@@H](O)[C@H](Cc1ccccc1)NC(=O)O[C@H]1CO[C@H]2OCC[C@H]21)S(=O)(=O)c1ccc(N)cc1 [Darunavir] here?
**A.** 1.02

**Q.** CC(=O)CCCCn1c(=O)c2c(ncn2C)n(C)c1=O [Pentoxifylline] was tested. Which AQP5-HiBiT luminescence did it give?
**A.** 1.02

**Q.** CC(C)c1c(C(=O)Nc2ccccc2)c(-c2ccccc2)c(-c2ccc(F)cc2)n1CC[C@@H](O)C[C@@H](O)CC(=O)O [Atorvastatin Calcium] was tested. Which AQP5-HiBiT luminescence did it give?
**A.** 0.704

**Q.** For S=c1[nH]cnc2nc[nH]c12 [Mercaptopurine (6-MP)], which AQP5-HiBiT luminescence is on record?
**A.** 1.06

**Q.** Which AQP5-HiBiT luminescence does the source give for CN(C)CCOC(C)(c1ccccc1)c1ccccn1 (stereo not given) [Doxylamine succinate] here?
**A.** 0.722

**Q.** Which AQP5-HiBiT luminescence does the source give for OC(CCCN1CCCCC1)(c1ccccc1)c1ccccc1 [Diphenidol hydrochloride] here?
**A.** 0.874

**Q.** With CO/N=C(\C(=O)N[C@@H]1C(=O)N2C(C(=O)O)=C(COC(C)=O)CS[C@H]12)c1csc(N)n1 [Cefotaxime sodium] as the compound, how does the AQP5-HiBiT luminescence read?
**A.** 0.903

**Q.** With CC(=O)OCC(=O)[C@H]1CC[C@H]2[C@@H]3CCC4=CC(=O)CC[C@]4(C)[C@H]3CC[C@]12C [Deoxycorticosterone acetate] as the compound, how does the AQP5-HiBiT luminescence read?
**A.** 1.28

**Q.** For COC(=O)C1=C(C)NC(C)=C(C(=O)OCCN(C)Cc2ccccc2)C1c1cccc([N+](=O)[O-])c1 (stereo not given) [Nicardipine hydrochloride], which AQP5-HiBiT luminescence is on record?
**A.** 1.03

**Q.** How did the AQP5-HiBiT luminescence turn out when Nc1nc(CC(=O)Nc2ccc(CCNC[C@H](O)c3ccccc3)cc2)cs1 [Mirabegron] was run?
**A.** 0.816

**Q.** How did the AQP5-HiBiT luminescence turn out when CC1(C)O[C@@H]2C[C@H]3[C@@H]4C[C@H](F)C5=CC(=O)C=C[C@]5(C)[C@H]4[C@@H](O)C[C@]3(C)[C@]2(C(=O)CO)O1 [Flunisolide] was run?
**A.** 0.769

**Q.** Which AQP5-HiBiT luminescence does the source give for CCCCN1CCCCC1C(=O)Nc1c(C)cccc1C (stereo not given) [Bupivacaine hydrochloride] here?
**A.** 1.04

**Q.** How did the AQP5-HiBiT luminescence turn out when Cc1nc(-c2ccc(OCC(C)C)c(C#N)c2)sc1C(=O)O [Febuxostat] was run?
**A.** 0.386

**Q.** How did the AQP5-HiBiT luminescence turn out when CCC(=O)O[C@]1(C(=O)SCF)[C@H](C)C[C@H]2[C@@H]3C[C@H](F)C4=CC(=O)C=C[C@]4(C)[C@@]3(F)[C@@H](O)C[C@@]21C [Fluticasone propionate] was run?
**A.** 1.03
